This is one part of the list.

T1: UNK ZnF1-3 (human, UniProt Q9C0B0 31-174)
T1 sequence: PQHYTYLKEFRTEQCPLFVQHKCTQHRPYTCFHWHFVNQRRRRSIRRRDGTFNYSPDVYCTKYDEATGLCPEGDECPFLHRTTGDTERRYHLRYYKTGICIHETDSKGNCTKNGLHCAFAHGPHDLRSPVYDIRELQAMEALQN

B1: chr7:65705844:65705845:+_ENSG00000169902_ENST00000304842|hu_mus|hu_hu_hu_mus_False|1_68 (ssRNA)
RNA: GGGAGUUCUACAGUCCGACGAUCAAACGGAUCUUUGUUACAUAAAUAAGGUGCCGGCUCCCCAUGUUUAACGAUAACCUCCAGAAGGAAGGCUUGCAUGGCAGAAUCUAGCACUUCAUCUGUGACACCCGCCUCAUCCAGGCGCAACAGAGGAUUGAGCAUCA
B2: chr1:178664722:178664723:-_ENSMUSG00000057335_ENSMUST00000057037|mus_hu|FALSE|FALSE (ssRNA)
RNA: GGGAGUUCUACAGUCCGACGAUCAGGCCUUUGUCGUCGUCUUGCAGGGUCCUUAUAAAUGUGUAAGACAGACAGCAUUUACUAUUGAGUCCUACAGGGAAACACACAGAAGCAAUUCAUUGCUUGGGAGUGAAACUAUCAACUCAACAGAGGAUUGAGCAUCA
B3: 17919545_17922950_436_3pUTR_ENSG00000163029_ENST00000351948|human|control|control (ssRNA)
RNA: GGGAGUUCUACAGUCCGACGAUCUUCCACCAAGACCGACUAUGAGAGCUGUGAGUACUGCACUCUUCCCACUUCCAUUGUUGCCAACAACAAAGUUGACAUUAGAACCAAACUUAAAAGGUCCAAGCAUUGAAUGACACAUGACAACAGAGGAUUGAGCAUCA
B4: chr22:19452774:19452775:-_ENSG00000070010_ENST00000399523|hu_hu|hu_hu_hu_mus_False|28_38 (ssRNA)
RNA: GGGAGUUCUACAGUCCGACGAUCCUUCUCAUUGUAGUUGAUAGCAAUCACAUCUCCAGUCGUCAGACAGGCGAAGUUUCUCAAUGCAUUUUCUAAUACGGCUUUGGGGUUGGUGAUAUCCAGGAAGUCUGGGCUCUGAGGCUGCAACAGAGGAUUGAGCAUCA
B5: chr11:122930872:122930873:-_ENSG00000109971_ENST00000227378|hu_hu|FALSE|FALSE (ssRNA)
RNA: GGGAGUUCUACAGUCCGACGAUCAACCUUUUUGUCUAAGCCGUAAGCAAUAGCAGCAGCAGUUGGCUCAUUAAUAAUUCUAAGUACAUUGAGACCAGCAAUAGUUCCAGCAUCUUUGGUAGCCUGACGCUGAGAGUCAUUAAACAACAGAGGAUUGAGCAUCA
B6: chr12:27888400:27888401:+_ENSG00000061794_ENST00000081029|hu_hu|motif|central (ssRNA)
RNA: GGGAGUUCUACAGUCCGACGAUCGGUCUUGCAGUAUCGCUCUCCUACAAGUUUAAUUAAUUUCUUCUUUGCGUGAUCAUCGGAAUUCAAACUGGAAAGCUUUACUCUUAAGACUACUACUCGUGCUCUGGGGUUCCGAACAGACAACAGAGGAUUGAGCAUCA
B7: chr9:96305504:96305505:+_ENSG00000048828_ENST00000277165|hu_mus|motif|central (ssRNA)
RNA: GGGAGUUCUACAGUCCGACGAUCAGCUGCCCACUCCUUAAUGAUCAGUGGCGAGAAUUCUGGUGGAAGUCUGUUCUUUCGGAAAGCAAGUCUCUCAGUUUUCUUUCUGCUUUCUGCCAAACUAAACAGGACUCCGUAAACAUACAACAGAGGAUUGAGCAUCA
B8: chr4:40210074:40210075:-_ENSMUSG00000036822_ENSMUST00000042575|mus_mus|FALSE|FALSE (ssRNA)
RNA: GGGAGUUCUACAGUCCGACGAUCUAUAGGACACUUAGAAUCAGGAGACGCAUCAGCUGGUACUGUCUGCUGCAAUUUGCUAGUGCCAGCUUUAGGUGAAAAGUUGUCCAUUUUAAAUUCCUUAGCAGCUGAGGCCAUUAUCUCCAACAGAGGAUUGAGCAUCA
B9: chr5:72798818:72798819:+_ENSG00000145741_ENST00000335895|hu_mus|FALSE|FALSE (ssRNA)
RNA: GGGAGUUCUACAGUCCGACGAUCGAUGCUGGGAAGCAUUUCUGUCAGCUGCUUUGUCUCAGCGUGGCCUGUAAUGGUGAAGGUGUUUGCUGCCAGGGAUGCCUGAACUUUAGGGUUGUUAAAAUGGAUCACUGUUCCUUGGUUCAACAGAGGAUUGAGCAUCA
B10: chr6:107361193:107361194:+_ENSG00000130349_ENST00000311381|hu_mus|FALSE|FALSE (ssRNA)
RNA: GGGAGUUCUACAGUCCGACGAUCUUUCGUAGAUUUUUUGGAGUUUAUAUUGCUUUUGAGUCGUAUAGAAAAUGGAAAAUAACAUUCUGGAGAUACUAAAAGCUCUGGGAGUCGCAGAGAGAAAAUGUUACGGAAAAGUGUUUUCAACAGAGGAUUGAGCAUCA
B11: chr2:128036804:128036805:-_ENSG00000163161_ENST00000285398|hu_mus|FALSE|FALSE (ssRNA)
RNA: GGGAGUUCUACAGUCCGACGAUCGACAAUAAUCUUGUCAUUCCUCCUUUCAUGAAACUUGAUCAGAAACUGGCAGGCUCUGAAUUUGUUGGGAUUCAUGGUGUACAACAGGAUCCGUUUCUUUGUUUUGAUUGCCACAUACUCCAACAGAGGAUUGAGCAUCA
B12: chr2:48026839:48026840:+_ENSG00000116062_ENST00000540021|hu_hu|hu_hu_hu_mus_False|1_88 (ssRNA)
RNA: GGGAGUUCUACAGUCCGACGAUCAUAGUGAGCCACUAGCGUCCUAAAUCUCGAACAGUGGCGGUCAUCCGAAAACUGGCCGAUGAAAAACUUGCCCAGUGAAGUGUCCACAAAGCAAACACCAUACACACGAGUGUGGCCAGACAACAGAGGAUUGAGCAUCA
B13: chrX:153667120:153667121:+_ENSG00000203879_ENST00000447750|hu_hu|FALSE|FALSE (ssRNA)
RNA: GGGAGUUCUACAGUCCGACGAUCAUUCCAGUCUCGGCCUCGGCCCAUCGACUCAGGGGGCCCCUCCAGCAACUGAAAACGCUUAUACAGCUCCUCCAGGGGUGUGAUGGAGGAGCUCUCGCCCCCGUAGUAGGGGUUCCGGUCCAACAGAGGAUUGAGCAUCA
B14: chr12:39756943:39756944:-_ENSG00000139116_ENST00000544797|hu_mus|hu_hu_hu_mus_False|28_108 (ssRNA)
RNA: GGGAGUUCUACAGUCCGACGAUCGGUUUGGCUAUUACCCCCAAGGGAAUCCUGCAAGAGUCUUGUCAGCUUAGAGUCUCUGUAAGGGACAUGGGUGGCUCUCUUGCUCUUGUCUCCCAAGGCGCUGAUUACAUUCCCAAGAGCCAACAGAGGAUUGAGCAUCA

The assay deals with T1, UNK ZnF1-3. In words: nsRBNS (natural sequence RNA bind-n-seq); RBNS binding buffer (assumed for nsRBNS): 25 mM Tris pH 7.5, 150 mM KCl, 3 mM MgCl2, 0.01% Triton X-100, 500 ug/ml BSA, 20 U/ml SUPERase-In, 4 C; UNK is unkempt and MSI1 is Musashi-1; names of the RNAs are library labels; protein concentration not given here; high values mean tight binding.
Take B1: the binding signal was found to be 0.372 enrichment R. As for B2, the binding signal was determined as 0.9 enrichment R. To B3 belongs 0.977 enrichment R; to B4, 0.861 enrichment R. Next, B5: 1.62 enrichment R; B6: 0.753 enrichment R. Next, B7: 1.11 enrichment R; B8: 0.734 enrichment R; B9: 0.581 enrichment R. For B10, the binding signal was 1.15 enrichment R. Next, B11: 0.804 enrichment R; B12: 1.14 enrichment R; B13: 0.662 enrichment R. To B14 belongs 0.827 enrichment R.
